{"source": "PubChem BioAssay (NCI)", "assay_in_all_cases": "inhibition of tumour cell growth, NCI panel, 48 h", "key": {"RPMI-8226 leukemia": {"test_system": "RPMI-8226 leukemia"}, "IGROV1 ovarian": {"test_system": "IGROV1 ovarian"}, "UACC-257 melanoma": {"test_system": "UACC-257 melanoma"}, "HOP-62 NSCLC": {"test_system": "HOP-62 NSCLC"}, "SW-620 colon": {"test_system": "SW-620 colon"}, "MALME-3M melanoma": {"test_system": "MALME-3M melanoma"}, "NCI/ADR-RES ovarian": {"test_system": "NCI/ADR-RES ovarian"}, "SF-295 CNS": {"test_system": "SF-295 CNS"}, "HT29 colon": {"test_system": "HT29 colon"}, "COLO 205 colon": {"test_system": "COLO 205 colon"}, "SN12C renal": {"test_system": "SN12C renal"}, "HCT-15 colon": {"test_system": "HCT-15 colon"}, "MOLT-4 leukemia": {"test_system": "MOLT-4 leukemia"}, "MCF7 breast": {"test_system": "MCF7 breast"}, "A549 NSCLC": {"test_system": "A549 NSCLC"}, "BT-549 breast": {"test_system": "BT-549 breast"}, "SF-268 CNS": {"test_system": "SF-268 CNS"}, "A498 renal": {"test_system": "A498 renal"}, "SNB-19 CNS": {"test_system": "SNB-19 CNS"}, "CAKI-1 renal": {"test_system": "CAKI-1 renal"}, "PC-3 prostate": {"test_system": "PC-3 prostate"}, "786-0 renal": {"test_system": "786-0 renal"}, "SNB-75 CNS": {"test_system": "SNB-75 CNS"}, "RXF 393 renal": {"test_system": "RXF 393 renal"}, "UO-31 renal": {"test_system": "UO-31 renal"}, "DU-145 prostate": {"test_system": "DU-145 prostate"}, "NCI-H522 lung": {"test_system": "NCI-H522 lung"}, "LOX IMVI melanoma": {"test_system": "LOX IMVI melanoma"}, "U251 CNS": {"test_system": "U251 CNS"}, "CCRF-CEM leukemia": {"test_system": "CCRF-CEM leukemia"}, "SK-OV-3 ovarian": {"test_system": "SK-OV-3 ovarian"}, "SK-MEL-28 melanoma": {"test_system": "SK-MEL-28 melanoma"}, "SK-MEL-5 melanoma": {"test_system": "SK-MEL-5 melanoma"}, "OVCAR-5 ovarian": {"test_system": "OVCAR-5 ovarian"}, "HOP-92 NSCLC": {"test_system": "HOP-92 NSCLC"}, "KM12 colon": {"test_system": "KM12 colon"}, "HCT-116 colon": {"test_system": "HCT-116 colon"}, "T-47D breast": {"test_system": "T-47D breast"}, "OVCAR-3 ovarian": {"test_system": "OVCAR-3 ovarian"}, "NCI-H226 lung": {"test_system": "NCI-H226 lung"}, "NCI-H460 lung": {"test_system": "NCI-H460 lung"}, "TK-10 renal": {"test_system": "TK-10 renal"}, "ACHN renal": {"test_system": "ACHN renal"}, "MDA-N": {"test_system": "MDA-N"}, "EKVX NSCLC": {"test_system": "EKVX NSCLC"}, "NCI-H23 lung": {"test_system": "NCI-H23 lung"}, "SR leukemia": {"test_system": "SR leukemia"}, "UACC-62 melanoma": {"test_system": "UACC-62 melanoma"}, "HL-60(TB) leukemia": {"test_system": "HL-60(TB) leukemia"}, "OVCAR-8 ovarian": {"test_system": "OVCAR-8 ovarian"}, "HCC-2998 colon": {"test_system": "HCC-2998 colon"}}, "note": "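Tested at 5 concentrations; 48 h exposure; 96-well plates; endpoints linearly interpolated, else capped at highest concentration. TGI is the concentration that stops growth completely.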 Certain results were filed several times, with different values. Only these are listed. The source may hold further records. For some assays here: The tests behind the records often covered other concentration ranges, not given here; some values may only mark the edge of a range. For some assays here: The records of an entry are repeated measurements in other runs, samples, wells, individuals or studies. What stands in brackets tells the records apart. A, B and so on number the origins entry by entry.", "data": [{"smiles": "CO[C@H]1C[C@@H]2CC[C@@H](C)[C@@](O)(O2)C(=O)C(=O)N2CCCC[C@H]2C(=O)O[C@H]([C@H](C)C[C@@H]2CC[C@@H](O)[C@H](OC)C2)CC(=O)[C@H](C)C=C(C)[C@@H](O)[C@@H](OC)C(=O)[C@H](C)C[C@H](C)/C=C/C=C/C=C1C", "values": [{"measurement": "TGI", "setting": "RPMI-8226 leukemia", "value": "33.2 µM [1 test] and 265 µM [mean of 3 tests] and 87.3 nM [mean of 7 tests] and 16.9 µM [mean of 8 tests]"}, {"measurement": "TGI", "setting": "IGROV1 ovarian", "value": "51.3 nM, 15.3 µM, 27.7 µM, 257 µM"}, {"measurement": "TGI", "setting": "UACC-257 melanoma", "value": "474 µM [mean of 3 tests] and 23.1 µM [mean of 8 tests]"}, {"measurement": "TGI", "setting": "HOP-62 NSCLC", "value": "94.3 nM, 20.4 µM, 278 µM"}, {"measurement": "TGI", "setting": "SW-620 colon", "value": "741 µM [1 test] and > 1 mM [mean of 2 tests] and 28.2 µM [mean of 9 tests]"}, {"measurement": "TGI", "setting": "MALME-3M melanoma", "value": "49 nM, 8.39 µM, 17.9 µM, 170 µM"}, {"measurement": "TGI", "setting": "NCI/ADR-RES ovarian", "value": "28.2 µM, 117 µM, 376 µM"}, {"measurement": "TGI", "setting": "SF-295 CNS", "value": "258 µM [mean of 4 tests] and 60.2 nM [mean of 8 tests] and 12.2 µM [mean of 9 tests]"}, {"measurement": "TGI", "setting": "HT29 colon", "value": "17.8 µM and 374 µM"}, {"measurement": "TGI", "setting": "COLO 205 colon", "value": "21.9 µM, 65.9 µM, 412 µM"}, {"measurement": "TGI", "setting": "SN12C renal", "value": "30.5 µM [1 test] and 338 µM [mean of 4 tests] and 26.7 µM [mean of 8 tests]"}, {"measurement": "TGI", "setting": "HCT-15 colon", "value": "17.9 µM, 53.3 µM, 267 µM"}, {"measurement": "TGI", "setting": "MOLT-4 leukemia", "value": "11.3 µM and > 703 µM"}, {"measurement": "TGI", "setting": "MCF7 breast", "value": "28.6 µM [1 test] and 375 µM [mean of 3 tests] and 17 µM [mean of 7 tests] and 52.1 nM [mean of 8 tests]"}, {"measurement": "TGI", "setting": "A549 NSCLC", "value": "108 µM [1 test] and 24 µM [mean of 10 tests] and 344 µM [mean of 4 tests]"}, {"measurement": "TGI", "setting": "BT-549 breast", "value": "16 µM and 202 µM"}, {"measurement": "TGI", "setting": "SF-268 CNS", "value": "29.1 µM, 277 µM, 376 µM"}, {"measurement": "TGI", "setting": "A498 renal", "value": "0.0512 nM, 21.5 µM [1 test] and 136 µM [mean of 2 tests] and 34.3 nM [mean of 7 tests] and 15.9 µM [mean of 8 tests]"}, {"measurement": "TGI", "setting": "SNB-19 CNS", "value": "95.7 µM [1 test] and 25.2 µM [mean of 10 tests] and 290 µM [mean of 4 tests]"}, {"measurement": "TGI", "setting": "CAKI-1 renal", "value": "17.2 µM [mean of 10 tests] and 252 µM [mean of 4 tests] and 55 nM [mean of 8 tests]"}, {"measurement": "TGI", "setting": "PC-3 prostate", "value": "17.9 µM and 304 µM"}, {"measurement": "TGI", "setting": "786-0 renal", "value": "24.2 µM and > 512 µM"}, {"measurement": "TGI", "setting": "SNB-75 CNS", "value": "31.5 µM [1 test] and 127 µM [mean of 4 tests] and 2.79 µM [mean of 8 tests]"}, {"measurement": "TGI", "setting": "RXF 393 renal", "value": "25.8 µM [1 test] and 159 µM [mean of 4 tests] and 36.5 nM, 15.9 µM [mean of 7 tests]"}, {"measurement": "TGI", "setting": "UO-31 renal", "value": "68 nM, 14.9 µM, 32.5 µM, 225 µM"}, {"measurement": "TGI", "setting": "DU-145 prostate", "value": "> 376 µM [mean of 2 tests] and 19.8 µM [mean of 8 tests]"}, {"measurement": "TGI", "setting": "NCI-H522 lung", "value": "86.5 nM, 23.3 µM, 146 µM, 385 µM"}, {"measurement": "TGI", "setting": "LOX IMVI melanoma", "value": "16.5 µM, 26.1 µM, 358 µM"}, {"measurement": "TGI", "setting": "U251 CNS", "value": "314 µM [mean of 4 tests] and 16.1 µM [mean of 8 tests]"}, {"measurement": "TGI", "setting": "CCRF-CEM leukemia", "value": "40.4 nM, 23.6 µM, 177 µM"}, {"measurement": "TGI", "setting": "SK-OV-3 ovarian", "value": "132 µM [1 test] and 335 µM [mean of 3 tests] and 23 µM [mean of 7 tests]"}, {"measurement": "TGI", "setting": "SK-MEL-28 melanoma", "value": "20.6 µM, 26.1 µM, 252 µM"}, {"measurement": "TGI", "setting": "SK-MEL-5 melanoma", "value": "> 1 mM [1 test] and 15.1 µM [mean of 10 tests] and 247 µM [mean of 3 tests]"}, {"measurement": "TGI", "setting": "OVCAR-5 ovarian", "value": "43.1 µM [1 test] and 368 µM [mean of 4 tests] and 24.2 µM [mean of 7 tests]"}, {"measurement": "TGI", "setting": "HOP-92 NSCLC", "value": "21 µM [1 test] and 39.2 nM [mean of 5 tests] and 14.1 µM [mean of 7 tests]"}, {"measurement": "TGI", "setting": "KM12 colon", "value": "23 µM, 29.6 µM, 330 µM"}, {"measurement": "TGI", "setting": "HCT-116 colon", "value": "18.7 µM, 32.8 µM, 234 µM"}, {"measurement": "TGI", "setting": "T-47D breast", "value": "0.282 nM [1 test] and 28.9 µM [mean of 10 tests] and 193 µM [mean of 2 tests]"}, {"measurement": "TGI", "setting": "OVCAR-3 ovarian", "value": "> 560 µM [mean of 2 tests] and 16.1 µM [mean of 9 tests]"}, {"measurement": "TGI", "setting": "NCI-H226 lung", "value": "947 nM [1 test] and 365 µM [mean of 3 tests] and 22 µM [mean of 5 tests]"}, {"measurement": "TGI", "setting": "NCI-H460 lung", "value": "66.8 µM [1 test] and 354 µM [mean of 4 tests] and 24.1 µM [mean of 9 tests]"}, {"measurement": "TGI", "setting": "TK-10 renal", "value": "53.8 nM, 21.9 µM, > 658 µM"}, {"measurement": "TGI", "setting": "ACHN renal", "value": "455 µM [mean of 3 tests] and 8.78 µM [mean of 9 tests]"}, {"measurement": "TGI", "setting": "MDA-N", "value": "21.9 µM and 252 µM"}, {"measurement": "TGI", "setting": "EKVX NSCLC", "value": "16.9 µM, 48.7 µM, 473 µM"}, {"measurement": "TGI", "setting": "NCI-H23 lung", "value": "23.5 µM, 236 µM, 335 µM"}, {"measurement": "TGI", "setting": "SR leukemia", "value": "10.4 µM and > 1 mM"}, {"measurement": "TGI", "setting": "UACC-62 melanoma", "value": "29.7 µM [1 test] and 224 µM [mean of 4 tests] and 17.9 µM [mean of 8 tests]"}]}, {"smiles": "c1ccc(-c2cccc(-c3ccccn3)n2)nc1", "values": [{"measurement": "TGI", "setting": "HL-60(TB) leukemia", "value": "670 nM [sample A] and > 100 µM [sample B]"}, {"measurement": "TGI", "setting": "OVCAR-8 ovarian", "value": "1.7 µM [sample A] and 31.2 µM [sample B]"}, {"measurement": "TGI", "setting": "HCC-2998 colon", "value": "1.23 µM [sample A] and 13.9 µM [sample B]"}, {"measurement": "TGI", "setting": "OVCAR-3 ovarian", "value": "1.39 µM [sample A] and 15.8 µM [sample B]"}, {"measurement": "TGI", "setting": "SR leukemia", "value": "3.13 µM [sample A] and > 100 µM [sample B]"}]}]}
